# About 2,200 (0.71%) of roughly 310,000 compounds showed an effect of 50% or more. Effects have a minus sign here. The list shows a part of the results.
# Target: human ether-à-go-go-related gene (hERG) potassium channel (human, UniProt Q12809)
# Assay: primary screen, population patch clamp on CHO cells stably expressing hERG
# human ether-à-go-go-related gene (hERG) potassium channel, sequence (Q12809 whole entry, looked up): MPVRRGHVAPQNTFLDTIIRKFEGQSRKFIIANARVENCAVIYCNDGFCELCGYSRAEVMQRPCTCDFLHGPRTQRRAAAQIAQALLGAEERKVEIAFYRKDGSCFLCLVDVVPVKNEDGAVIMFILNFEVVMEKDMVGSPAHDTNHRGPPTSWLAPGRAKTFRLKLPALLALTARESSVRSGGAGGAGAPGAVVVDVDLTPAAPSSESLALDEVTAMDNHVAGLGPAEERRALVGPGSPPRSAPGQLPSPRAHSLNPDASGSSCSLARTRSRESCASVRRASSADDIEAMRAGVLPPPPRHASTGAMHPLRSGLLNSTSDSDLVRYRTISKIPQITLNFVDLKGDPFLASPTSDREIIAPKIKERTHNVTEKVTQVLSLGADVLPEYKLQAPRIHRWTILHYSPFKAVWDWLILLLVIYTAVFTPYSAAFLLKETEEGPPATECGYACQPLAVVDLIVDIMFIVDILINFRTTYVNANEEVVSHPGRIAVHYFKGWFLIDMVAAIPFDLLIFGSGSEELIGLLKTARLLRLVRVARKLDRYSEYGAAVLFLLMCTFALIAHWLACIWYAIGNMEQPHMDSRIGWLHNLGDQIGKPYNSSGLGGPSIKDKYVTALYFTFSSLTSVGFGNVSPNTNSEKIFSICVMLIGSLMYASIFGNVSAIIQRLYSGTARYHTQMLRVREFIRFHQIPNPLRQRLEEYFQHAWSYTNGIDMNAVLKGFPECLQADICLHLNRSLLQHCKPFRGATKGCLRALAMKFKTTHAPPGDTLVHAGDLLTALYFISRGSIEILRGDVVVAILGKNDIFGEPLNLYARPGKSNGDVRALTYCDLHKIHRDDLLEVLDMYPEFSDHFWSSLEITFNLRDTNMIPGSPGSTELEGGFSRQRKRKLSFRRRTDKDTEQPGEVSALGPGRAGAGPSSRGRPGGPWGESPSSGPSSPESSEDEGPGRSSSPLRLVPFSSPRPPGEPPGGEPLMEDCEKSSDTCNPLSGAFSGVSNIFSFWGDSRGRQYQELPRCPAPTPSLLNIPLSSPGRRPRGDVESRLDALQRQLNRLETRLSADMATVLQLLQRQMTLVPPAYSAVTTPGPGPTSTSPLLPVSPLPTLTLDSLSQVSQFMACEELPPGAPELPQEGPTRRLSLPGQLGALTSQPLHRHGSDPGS
row,Compound,"hERG current change (%, negative = inhibition) at 1uM"
1,Cc1ccn(CCNC(=O)C2CCC(=O)N(CCc3ccc(Cl)cc3)C2)n1 (stereo not shown),-13.6%
2,CCN(CC)S(=O)(=O)c1ccc(OC)c(NC(=O)c2cccc(C)c2[N+](=O)[O-])c1,6.34%
3,CCOC(=O)CNC(=O)C1c2cc(OC)c(OC)cc2C(=O)N(C)C1c1ccccc1F (stereo not shown),8.66%
4,COc1cccc(CNC(=O)CN2C(=O)COc3ccc(S(=O)(=O)N4CCCCCC4)cc32)c1,21.1%
5,O=C(NCCN1CCOCC1)Nc1ccc(Cl)cc1,14.2%
6,COc1ccc(-c2cc(C(=O)Nc3cc(OC)cc(C(=O)Nc4cccc(C(F)(F)F)c4)c3)[nH]n2)cc1,-5.22%
7,COCc1ccc(CN2CCCC(CO)(Cc3cccc(OC)c3)C2)o1 (stereo not shown),-6.79%
8,COc1ccc(C(=O)Nc2ccc(C(=O)c3ccccc3)cc2)cc1,19.7%
9,CCOC(=O)C1CCC/C1=N\NC(=O)CN(c1cc(OC)ccc1OC)S(=O)(=O)c1ccccc1 (stereo not shown),-1.72%
10,COc1ccc(CCNC(=O)CC2(CC3=NS(=O)(=O)c4ccccc4N3)CCCC2)cc1OC,-1.15%
11,Cc1cccc(NC(=O)NC2CCCCCCC2)c1C,12.9%
12,COc1ccc2nc(NC(=O)C(NS(=O)(=O)c3cccc4nsnc34)C(C)C)sc2c1 (stereo not shown),9.04%
13,CCOC(=O)c1cc(-c2cc3ccccc3o2)n[nH]1,10.2%
14,COc1cccc(CCc2nnc(CCC(=O)N(C)C3CC(C)(C)NC(C)(C)C3)o2)c1,12.1%
15,Cc1cc2cc(C(c3nnnn3C3CCCC3)N(Cc3cccnc3)Cc3ccco3)c(=O)[nH]c2cc1C (stereo not shown),-0.767%
16,COc1ccccc1NC(=O)CCNS(=O)(=O)c1ccc2[nH]c(=O)oc2c1,9.11%
17,CC(/C=N\NC(=O)Cn1c(C)nc2ccccc21)=C\c1ccccc1,15.5%
18,Clc1ccc(COn2c(-c3ccc(Cl)cc3Cl)nc3ncccc32)cc1,8.26%
19,COCCN(C(=O)c1ccco1)c1nnc(-c2ccc(OC)cc2)s1,12.3%
20,CCC(=O)N1CCc2cc(Br)cc(S(=O)(=O)N(C)c3ccc(OC)cc3OC)c21,12.7%
21,CCCCOc1ccc(C(=O)NN2C(=O)NC3(CCCCC3)C2=O)cc1OC,12.3%
22,CN(C)c1ccc(/C=N/NC(=O)CCc2nc3ccccc3[nH]2)cc1,14.1%

row,Compound,"hERG current change (%, negative = inhibition) at 1uM"
1,C/C(=C\c1ccccc1)C(=O)Nc1ccc(Cl)cn1,10.8%
2,CN(C(=O)Cc1c(C(=O)O)n(C)c2ccccc12)c1ccc(F)cc1,7.28%
3,Cn1c(CN2CCCC2)nc2cc(NC(=O)c3ccc(Cl)cc3)ccc21,-11.3%
4,CN(C)c1ccc(C(=O)Nc2nc3c(s2)CCCC3)cc1,7.08%
5,CC1CCN(S(=O)(=O)c2ccc(NC(=O)CN3CCN(C)CC3)cc2)CC1,3.35%
6,CC(NC(=O)CCNS(=O)(=O)c1ccc2c(c1)c(=O)n(C)c(=O)n2C)c1ccccc1 (stereo not shown),-0.673%
7,O=C(c1cc[n+]([O-])cc1)N1CCc2c([nH]c3ccccc23)C1c1ccccc1Cl (stereo not shown),7.21%
8,CCOCCn1c(SCc2ccc(F)cc2)nc2c1c(=O)[nH]c(=O)n2C,5.52%
9,O=C(NC1CCCC1)C1CCN(c2nccs2)CC1,10.5%
10,O=C(O)C1CCN(S(=O)(=O)c2cccnc2)CC1,6.26%
11,Cc1cccc(NC(=O)Cc2ccc(-c3ccccc3)cc2)n1,9.98%
12,COc1ccc(N2CCN(C(=O)c3ccccc3NS(=O)(=O)c3ccccc3)CC2)cc1,9.47%
13,Cl.O=C(CCCN1CCC(c2ccccc2)C1)c1ccc2c(c1)OCCO2 (stereo not shown),-29.8%
14,Cc1cccc(C(=O)/C=C2/c3ccccc3CC(C)(C)N2C)c1,-5.71%
15,Cc1cc(NC(=O)NN2CCOCC2)nn1-c1c(Cl)cccc1Cl,13.6%
16,CC(C)C(=O)N1CCN(c2cc(N3CCN(C)CC3)c(F)cc2[N+](=O)[O-])CC1,0.106%
17,CCc1ccc(NC(=S)NC2CC3CCCC(C2)N3Cc2cccs2)cc1 (stereo not shown),9.83%
18,COc1ccc(OC)c(C(=O)CSc2nc3ccccc3n2CC(=O)NC(C)(C)C)c1,10.2%
19,O=c1c2ccccc2cnn1Cc1n[nH]c(=S)n1C1CC2CCC1C2 (stereo not shown),11.5%
20,O=C(NC1CCCCC1)c1cccc(Cn2cc(Cl)cn2)c1,7.71%
21,CC1(c2nnc(-c3ccccc3)o2)CC(c2cccnc2)=NO1 (stereo not shown),13.3%

# Source: publication PMC4336329 (PLoS ONE, 2015)
